Measurements from the supplement of paper PMC10126150.
Values marked as one replicate rest on one cluster of the flow cell; about a third of the high ones do not repeat.
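Further: ATP exposure 15 min at 22 °C before imaging.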

These sequences were tested on ATP (assay: switch fluorescence ratio, 500 uM ATP over buffer (Cy3 cluster intensity, sum of 5 cycles each) (fold (ratio)); higher = stronger signal-on switching upon ATP binding; sequences stand for … in TCGTCGGCAGCGTCAGATGTGTATAAGAGACAGTTTTTTTTTTTTTTTTTTTTTTTTT…TC). Details: aptamer strand: ATP DNA aptamer (quencher-CACCTGGGGGAGTATTGCGGAGGAAGG + anchor), 100 nM annealed; ATP concentration: 500 uM; one replicate.
How it was run: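 Between each of five buffer/ATP cycles, the flow-cell was stripped with NaOH and re-annealed. Each cycle imaged Cy3-labelled switching-strand clusters, annealed to 100 nM quencher-labelled ATP aptamer on a modified Illumina MiSeq flow-cell, first in selection buffer and then after 15 min with 500 uM ATP at 22 °C. The fluorescence ratio is summed target-cycle over summed buffer-cycle Cy3 intensity per cluster, averaged per switch-domain sequence, with clusters outside 100-1000 RFU excluded.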
TCTGACTCTA gave a switch fluorescence ratio of 1.22.
With TCTGAGGCGT the switch fluorescence ratio was 1.03.
Sequence TCTGAGGGTC has a switch fluorescence ratio of 1.02.
Sequence TCTGATATTT has a switch fluorescence ratio of 0.985.
TCTGATGCAA showed a switch fluorescence ratio of 3.8.
In the case of TCTGATTTAT, the switch fluorescence ratio is reported as 0.965.
Work on TCTGATTTC yielded a switch fluorescence ratio of 1.12.
TCTGCAAAAA showed a switch fluorescence ratio of 2.34.
TCTGCAACTT showed a switch fluorescence ratio of 1.15.
TCTGCACACC was tested, and the switch fluorescence ratio was 1.4.
TCTGCAGAGT gave a switch fluorescence ratio of 0.991.
TCTGCATAGT gave a switch fluorescence ratio of 1.13.
For TCTGCCGTTG, the switch fluorescence ratio was 1.04.
TCTGCGGTTA was tested, and the switch fluorescence ratio was 1.04.
TCTGGAGCTG was tested, and the switch fluorescence ratio was 1.43.
With TCTGGAGTGG the switch fluorescence ratio was 1.03.
TCTGGCTCGA was tested, and the switch fluorescence ratio was 0.988.
Work on TCTGGGCGGA yielded a switch fluorescence ratio of 0.965.
For TCTGGGGGAT, the switch fluorescence ratio was 1.08.
For TCTGGGTTGC, the switch fluorescence ratio was 0.987.
TCTGGTAGAT gave a switch fluorescence ratio of 1.04.
TCTGTAAAAG showed a switch fluorescence ratio of 0.988.
With TCTGTAAATA the switch fluorescence ratio was 0.998.
Work on TCTGTCAGCT yielded a switch fluorescence ratio of 0.988.
Sequence TCTGTCTCTA has a switch fluorescence ratio of 0.994.
TCTGTCTTAT showed a switch fluorescence ratio of 0.988.
Work on TCTGTGGCGG yielded a switch fluorescence ratio of 0.995.
Sequence TCTGTTAACT has a switch fluorescence ratio of 0.961.
Sequence TCTGTTAGAC has a switch fluorescence ratio of 1.17.
Sequence TCTGTTTATT has a switch fluorescence ratio of 1.03.
TCTTAATAAA was tested, and the switch fluorescence ratio was 0.978.
For TCTTATTATA, the switch fluorescence ratio was 1.04.
TCTTCAAGAG gave a switch fluorescence ratio of 1.01.
In the case of TCTTCATTGA, the switch fluorescence ratio is reported as 0.987.
TCTTCCTGTG was tested, and the switch fluorescence ratio was 1.29.
Sequence TCTTCGTGGC has a switch fluorescence ratio of 1.17.
In the case of TCTTCTGCCG, the switch fluorescence ratio is reported as 0.972.
For TCTTCTGTGG, the switch fluorescence ratio was 1.03.
TCTTGATCAA was tested, and the switch fluorescence ratio was 0.99.
Work on TCTTGCAACT yielded a switch fluorescence ratio of 1.09.
Sequence TCTTGCAGAC has a switch fluorescence ratio of 2.3.
With TCTTGCCCTC the switch fluorescence ratio was 1.02.
Sequence TCTTGGACGT has a switch fluorescence ratio of 0.993.
With TCTTTACGGA the switch fluorescence ratio was 1.
Work on TCTTTATTCT yielded a switch fluorescence ratio of 0.997.
Sequence TCTTTATTGG has a switch fluorescence ratio of 1.
Sequence TCTTTCGGAT has a switch fluorescence ratio of 0.98.
TCTTTCTCTC was tested, and the switch fluorescence ratio was 1.05.
TCTTTTAAAC was tested, and the switch fluorescence ratio was 1.01.
With TCTTTTACTC the switch fluorescence ratio was 1.02.
TCTTTTCTTG gave a switch fluorescence ratio of 1.02.
In the case of TGAAAAGGAT, the switch fluorescence ratio is reported as 0.989.
In the case of TGAAAAGGCT, the switch fluorescence ratio is reported as 1.06.
TGAAAAGTTT showed a switch fluorescence ratio of 1.09.
With TGAAACAGGG the switch fluorescence ratio was 1.02.
TGAAACGTTA showed a switch fluorescence ratio of 1.09.
In the case of TGAAACTCCA, the switch fluorescence ratio is reported as 1.04.
Work on TGAAACTTTG yielded a switch fluorescence ratio of 0.966.
TGAAAGCTCT gave a switch fluorescence ratio of 0.984.
TGAAATGGGC gave a switch fluorescence ratio of 0.956.
In the case of TGAACATTGT, the switch fluorescence ratio is reported as 1.09.
TGAACCGAG gave a switch fluorescence ratio of 1.25.
Work on TGAACGGTCG yielded a switch fluorescence ratio of 1.02.
Work on TGAACTTCGG yielded a switch fluorescence ratio of 0.956.
In the case of TGAAGAGCGT, the switch fluorescence ratio is reported as 1.04.
For TGAAGCCATG, the switch fluorescence ratio was 0.934.
With TGAAGGAATG the switch fluorescence ratio was 1.04.
TGAAGGCCCA showed a switch fluorescence ratio of 0.996.
TGAAGGGCAT was tested, and the switch fluorescence ratio was 0.94.
Work on TGAAGTATTA yielded a switch fluorescence ratio of 0.999.
TGAAGTTACA showed a switch fluorescence ratio of 1.06.
For TGAAGTTTGA, the switch fluorescence ratio was 1.02.
TGAATCGAAG was tested, and the switch fluorescence ratio was 0.959.
Work on TGAATGCGTA yielded a switch fluorescence ratio of 1.02.
Sequence TGAATGGGAC has a switch fluorescence ratio of 1.02.
TGAATGGTGC gave a switch fluorescence ratio of 1.08.
